Assay results published in PubChem BioAssay AID488969 (Vanderbilt High Throughput Screening Facility, 2010).
Over roughly 110,000 compounds, “z-score” has its median near -0.1; the highest 2% begin near 2. The list shows a part of the results. Calls of active or inactive are those of the source.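 How the source made its calls: active means z-score in the third read window above 3 or below -3; inactive means the rest.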

biological target: Metabotropic glutamate receptor 8 (Rattus norvegicus) (UniProt P70579); assay: mGluR8 Gi/Go-coupled signaling modulation – cell-based, rat, thallium flux, HTS, primary screen (AID 488969); conditions: HEK293 rat mGluR8, GIRK (G protein-gated inwardly rectifying potassium channel) thallium flux, FluoZin2; at 10 µM; stronger effect = higher value; submaximal glutamate (EC20) added with thallium
UniProt P70579, sequence (P70579 whole entry, looked up): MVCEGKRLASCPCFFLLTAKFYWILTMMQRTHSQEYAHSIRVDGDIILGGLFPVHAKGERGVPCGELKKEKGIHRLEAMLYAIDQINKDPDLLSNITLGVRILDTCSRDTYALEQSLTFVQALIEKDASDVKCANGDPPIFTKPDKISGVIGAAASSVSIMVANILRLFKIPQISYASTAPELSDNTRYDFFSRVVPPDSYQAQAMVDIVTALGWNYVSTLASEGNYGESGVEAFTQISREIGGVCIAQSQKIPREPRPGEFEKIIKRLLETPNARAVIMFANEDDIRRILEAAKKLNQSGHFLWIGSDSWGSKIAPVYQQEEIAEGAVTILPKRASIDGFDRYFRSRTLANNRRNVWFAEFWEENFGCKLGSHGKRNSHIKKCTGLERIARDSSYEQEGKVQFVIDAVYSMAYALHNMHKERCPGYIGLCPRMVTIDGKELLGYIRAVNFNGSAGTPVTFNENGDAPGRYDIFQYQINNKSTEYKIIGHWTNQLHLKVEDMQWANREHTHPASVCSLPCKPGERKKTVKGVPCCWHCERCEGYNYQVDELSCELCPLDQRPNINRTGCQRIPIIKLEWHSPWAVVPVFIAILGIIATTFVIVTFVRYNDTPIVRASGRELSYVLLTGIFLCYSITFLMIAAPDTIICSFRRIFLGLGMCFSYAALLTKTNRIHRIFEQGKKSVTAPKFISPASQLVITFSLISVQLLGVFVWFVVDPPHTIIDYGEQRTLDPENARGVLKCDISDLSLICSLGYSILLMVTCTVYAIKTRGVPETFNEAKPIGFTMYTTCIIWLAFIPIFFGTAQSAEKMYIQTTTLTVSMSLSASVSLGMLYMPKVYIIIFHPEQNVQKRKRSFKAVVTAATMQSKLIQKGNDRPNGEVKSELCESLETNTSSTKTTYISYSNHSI

Point of comparison: `Cn1ccnc1C(O)c1ccco1` (configuration not stated), z-score -0.195. Against it:
- CCOc1ccc(CN2CCN(c3cc(C)nc4c5c(C)cc(C)nc5nn34)CC2)cc1 — higher, 0.115
- COc1ccc(-c2ccc(-c3nnc(Cc4ccc(OC)c(OC)c4)o3)cc2)cc1 — higher, 0.983
- Cc1sc2nc(-c3cccnc3)nc(Cl)c2c1-c1ccccc1 — higher, -0.11
- N#Cc1nc(-c2ccccc2F)oc1N1CCCC1 — higher, -0.139
- COc1ccc2c(c1)SC1=NCCS(=O)(=O)N12 — higher, 0.27
- CC(C)(C)NC(=O)c1ccncc1 — higher, -0.0181
- N#Cc1ccc(-c2csc(NNC(=O)c3ccccc3)n2)cc1 — lower, -0.283
- COc1ccc(C2CC(c3ccc(Cl)cc3Cl)Nc3nc(N)nn32)cc1 (configuration not stated) — higher, 1.46
- CCC(=O)Nc1ccc(NC(=O)C23CC4CC(CC(C4)C2)C3)cn1 — higher, -0.0944
- O=C(Nc1nc2ccccc2[nH]1)C12CC3CC(CC(C3)C1)C2 — higher, 0.258
- CC(C(=O)N1CCOCC1)N1C(=O)C2C3CC(C(Br)C3Br)C2C1=O (configuration not stated) — lower, -0.258
- CCC(CC)C(=O)N(CCc1ccc(OC)cc1)Cc1nc2ccccc2c(=O)[nH]1 — lower, -0.378
- O=c1c2ccccc2c(C=NCCCN2CCOCC2)c(O)n1Cc1ccccc1 — higher, -0.181
- C=C(C)C(C)(C#CCN1CCCC1)OC(C)=O (configuration not stated) — higher, -0.061
- Cc1cc(Nc2ccccc2)n(CCO)n1 — lower, -0.342
- Clc1ccc(-c2nnc3sc(-c4ccccn4)nn23)cc1 — lower, -0.712
- COc1cc(OC)cc(C(=O)Nc2ccccc2C(=O)N2CCCC2)c1 — lower, -0.915
- CCCCN(C)Cc1c(C)[nH]c2ccc(C)cc2c1=O — higher, 0.122
- Nc1nc(Cl)cc(Sc2ccc3ccccc3c2)n1 — higher, -0.0266
- Cc1ccc(NC(=S)NC(=O)/C=C/c2ccc(Cl)cc2)cc1 — higher, -0.012
- O=C(NCCN1CCN(c2ccccc2F)CC1)C1c2ccccc2C(=O)N2CCc3ccccc3C12 (configuration not stated) — lower, -0.308
- COc1ccc(C(=O)Nc2ccc(C(F)(F)F)n(C)c2=O)cc1 — higher, 0.0843
- COc1ccccc1-n1c(=O)c2c3c(sc2n2c(SC)nnc12)CCC3 — lower, -0.196
- O=C(NC1CCCCC1)c1ccc(S(=O)(=O)c2ccccc2Cl)c([N+](=O)[O-])c1 — higher, -0.192
- Cc1cc(C)n2c(SCc3ccc(Cl)cc3Cl)nnc2n1 — lower, -0.367
- Cc1nc([N+](=O)[O-])cn1-c1ccc(N)cc1 — higher, -0.174
- C=CCOc1c(Cl)cc(/C=N/O)cc1OC — lower, -0.49
- Cc1cccc(NC(=O)C(C)N2C(=O)C3C4CC(C(Br)C4Br)C3C2=O)c1 (configuration not stated) — higher, 0.0214
- CCOc1cc(C=C(C(=O)OC)C(=O)OC)ccc1OCc1ccc([N+](=O)[O-])cc1 — higher, -0.0266
- O=C(O)CCSc1nc2ccccc2c(=O)[nH]1 — higher, 0.336
- COc1ccc(CN2CC(C(=O)NCCCOC(C)C)CC2=O)cc1 (configuration not stated) — higher, 0.143
- Cc1nc2ncnn2c(N2CCN(C(=O)Cc3cccs3)CC2)c1C — lower, -0.403
- Cc1ccc(C(=O)NCCSc2ccc(Cl)cc2)cc1[N+](=O)[O-] — lower, -1.25
- Cc1nc(N2CCC(C)CC2)c2c(C)c(C(=O)O)sc2n1 — higher, -0.0467
- COC(=O)CSC1=C(C#N)C(c2cccc(OC)c2)CC(=O)N1 (configuration not stated) — higher, 0.085
- COc1ccccc1C(=O)n1nc(-c2ccccc2)nc1N — lower, -0.265
- CC(C)(C)OC(=O)N/N=C\C=C\c1ccc2c(c1)OCO2 — higher, 0.189
- O=C(O)CCC(=O)Nc1ccc(F)cc1 — higher, 0.743
- CC(=O)NC1(c2cccc(F)c2)CCN(C(=O)Nc2ccc(C#N)cc2)CC1 — lower, -0.389
- COCCn1nnnc1C(c1cc2cc(C)cc(C)c2[nH]c1=O)N1CCN(c2ccccc2F)CC1 (configuration not stated) — higher, 0.0225
- O=C(N1CCOCC1)N1CCN(C(=O)N(c2ccccc2)c2ccccc2)CC1 — lower, -0.217
- O=C(Cc1cccs1)Nc1ccc(-c2nnn(CC(=O)N3CCOCC3)n2)cc1 — lower, -0.736
- Cc1cc(SCCC(=O)O)nc2c(C)cccc12 — higher, 0.621
- Cc1ccnc(NC(=O)COC(=O)C2COc3ccccc3O2)n1 (configuration not stated) — lower, -1.63
- COc1ccc(N2C(=O)C3CCCN3C2c2ccccc2F)cc1 (configuration not stated) — lower, -0.777
- CC(C)(C)n1nc2c(c1NC(=O)c1cccs1)CS(=O)C2 (configuration not stated) — higher, 0.235
- COc1ccc(OC)c(NC(=O)CC(Cc2ccccc2OC)C(=O)O)c1 (configuration not stated) — lower, -0.255
- Cc1ccnc(NC(=S)NC(=O)c2cncc(Br)c2)c1 — higher, 1.25
- CCOc1ccc(C2=CS/C(=C(\C#N)c3nnc4n3CCCCC4)N2CC)cc1 — lower, -2.45
- CCn1ccc(=N)cc1 — higher, -0.08
- CN(C)S(=O)(=O)c1ccc(C(=O)Nc2cccc(C(=O)O)c2)cc1 — higher, -0.0406
- C[n+]1cc(-c2ccccc2)n2c1CCCCC2 — higher, 0.679
- CCOC(=O)c1cnn(-c2nc3c(C)cccc3s2)c1C — higher, -0.112
- Nc1cc(OC(=O)c2cccs2)nn1S(=O)(=O)c1ccccc1 — lower, -0.719
- COc1ccc(CCN(C)C(=O)C2CCCN(Cc3ccc(OC)c(OC)c3)C2)cc1OC (configuration not stated) — lower, -0.269
- CCOc1ccc(NC(=O)N2CCC(n3c(=O)[nH]c4ccccc43)CC2)cc1 — higher, -0.177
- COc1ccc(S(=O)(=O)CCC(=O)N(C)c2ccc(OC)cc2OC)cc1 — higher, 0.332
- CC(=O)c1cccc(NC(=O)C2CC(=O)N(Cc3ccccc3)C2)c1 (configuration not stated) — lower, -0.606
- CCOC(=O)c1cccc(C(=O)Oc2ccccc2)n1 — lower, -1.04
- COC(=O)CNC(=O)CSc1nc(N)cc(=O)[nH]1 — lower, -0.273
- CCCCC1(C)Nc2ccccc2-c2nc3ccccc3n21 (configuration not stated) — lower, -1.21
- CCOc1ccc2[nH]c(=O)c(C(c3nnnn3Cc3ccco3)N3CCCC(C)C3)cc2c1 (configuration not stated) — higher, 0.699
- CCc1ccc(OCCOCC(O)CNC(C)(C)C)cc1 (configuration not stated) — higher, -0.177
- CCn1c(SCC(=O)O)nnc1C1CCCCC1 — lower, -0.251
- C=CCNc1nc2c(c(=O)n(C)c(=O)n2C)n1CC — lower, -0.405
- CCOc1cc(S(=O)(=O)N2CCCCC2)ccc1F — higher, 0.329
- CCCCOc1ccc(C(=O)NCC(=O)OCC(=O)N2CCN(S(=O)(=O)c3ccc(C)cc3C)CC2)cc1 — higher, -0.156
- CCOC(=O)c1sc2cccc(Cl)c2c1N — higher, 0.0242
- O=C(CN(Cc1cccs1)C(=O)CCC(=O)Nc1nccs1)NCc1ccccc1 — lower, -0.316
- CCOC(=O)N1CCN(C(=O)c2cc(C)no2)CC1 — higher, -0.139
- O=C(CSc1nnc(-c2ccc(S(=O)(=O)N3CCCC3)cc2)o1)NCc1ccccc1 — higher, 0.0515
- COc1ccccc1Nc1nc(N)nc(CN2CCC(Cc3ccccc3)CC2)n1 — higher, 0.165
- CCNC(=O)CN(Cc1ccccc1)S(=O)(=O)c1ccccc1 — higher, 0.149
- COC(=O)C(C)Sc1nc2c(cnn2-c2ccccc2)c(=O)[nH]1 (configuration not stated) — lower, -0.615
- CCOC(=O)C1=C(C)Nc2ncnn2C1c1cccs1 (configuration not stated) — lower, -0.864
- COc1ccccc1-c1nnc(SCC(=O)N2CCOCC2)n1-c1ccccc1 — lower, -0.262
- CN(C)S(=O)(=O)c1ccc(Cl)c(NC(=O)CSc2nc3c(cc2C#N)C(=O)CCC3)c1 — lower, -0.272
- CCSc1nnc(-c2ccc(Cl)cc2)c2ccccc12 — higher, 0.0767
- O=C(CC1CCS(=O)(=O)C1)NC1CCCCC1 (configuration not stated) — lower, -0.567
- CCOC(=O)C(CC)n1cnc2c(cnn2-c2ccc(Cl)cc2)c1=O (configuration not stated) — higher, 0.0226
- CCCCn1c(=NC(=O)c2ccc3c(c2)OCO3)c(C#N)cc2c(=O)n3cccc(C)c3nc21 — lower, -0.383
- CCN(CC)S(=O)(=O)c1ccc2[nH]cc(C(=O)NCCc3ccc(OC)c(OC)c3)c(=O)c2c1 — lower, -0.577
- COc1cc(/C=C(\C#N)c2nc3ccccc3[nH]2)ccc1Oc1ccc([N+](=O)[O-])cn1 — higher, 0.0357
- COC(=O)c1ccccc1NC(=O)c1ccc(COc2cccc3ccccc23)o1 — higher, -0.084
- CN(CC(O)CN)CC(O)CN1CCCCC1 (configuration not stated) — lower, -0.365
- CC(C)(C)n1nnnc1C(c1cccs1)N1CCN(C(=O)c2ccco2)CC1 (configuration not stated) — higher, 0.00972
- Cc1ccccc1N/C(=C(/C(Cl)=C(Cl)Cl)[N+](=O)[O-])n1nnc2ccccc21 — lower, -0.704
- O=C(c1cc2ccccc2c(=O)o1)N1CCCC1 — higher, 0.79
- COc1cc(/C=N/NC(=O)C(Cc2c[nH]c3ccccc23)NC(=O)OCC(C)C)cc([N+](=O)[O-])c1O (configuration not stated) — higher, -0.166
- CCOC(=O)c1ccccc1NC(=O)c1cc(S(=O)(=O)N2CCOCC2)ccc1F — lower, -0.214
- COc1ccccc1OCCOc1ccc(/C=N/n2cnnc2)cc1 — lower, -0.299
- COc1ccc(C(=O)NCc2nnc(SCC(=O)Nc3cccc(C(F)(F)F)c3)o2)cc1OC — higher, 0.0268
- O=C(N/N=C/C=C/c1ccccc1[N+](=O)[O-])c1cc(-c2cccnc2)nc2ccccc12 — lower, -0.621
- O=C(CSc1nc2sc3c(c2c(=O)[nH]1)CCCC3)NCCO — higher, 1.54
- Cc1cc(-c2nnc(SCC(=O)c3ccc(F)cc3)o2)no1 — higher, 0.273
- O=C(COC(=O)c1ccc(CO)cc1)NCc1cccs1 — higher, 0.0223
- COc1cc(/C=N/NC(=O)CC23CC4CC(CC(C4)C2)C3)cc(Br)c1OCC(=O)N(C)C — lower, -0.225
- Cc1cc(N2CCCC2=O)cc(C)c1CN1C(=O)c2ccccc2C1=O — higher, 0.439
- O=C(NC1CCCCC1)N1CCN(C2CCCCC2)CC1 — lower, -0.263
- CCOC(=O)N/N=C\c1sccc1C — higher, 0.0198
- CC1=C(C)C(=O)N(c2ccccn2)C1=O — higher, 1.3
- CCOC(=O)N1CCC(NC(=O)CCc2c(C)nc3ncnn3c2C)CC1 — higher, -0.107
- O=C(CSc1nc(Nc2ccccc2)nc(N2CCOCC2)n1)Nc1ccccc1Cl — higher, -0.0891
- CCSc1nc(O)c(C2OC(=O)c3c2ccc(OC)c3OC)c(=O)n1-c1ccccc1 (configuration not stated) — higher, 0.0226
- N#C/C(=C(/O)COC(=O)Cc1c[nH]c2ccccc12)c1nc2ccccc2[nH]1 — lower, -0.819
- Cn1c(C(=O)N2COCC2(C)C)cc2c(=O)n3ccccc3nc21 — higher, 0.578
- O=C(NCc1ccc2c(c1)OCO2)c1cccc(C(=O)NCc2ccc3c(c2)OCO3)c1 — lower, -0.492
- COc1ccc(S(=O)(=O)Nc2ccccn2)cc1OC — lower, -0.302
- COC(=O)C1=C(C)NC(C)=C(C(=O)OC)C1c1ccc(NC(C)=O)cc1 — lower, -0.268

`c1cn(C23CC4CC(CC(C4)C2)C3)cn1` was tested, and the z-score was active: 4.17.
In the case of `CCN1CCN(CCCOc2ccc(-c3ccccc3)cc2)CC1`, the z-score is reported as active: 4.56.
